According to the antibiotic and cytotoxicity screens of Wong et al. (2023):
The list shows a part of the results.

Each molecule was assayed on HepG2 (assay: cytotoxicity call (relative viability < 0.9)). Conditions: 10 µM.

| Structure (SMILES) | cytotoxicity call |
| --- | --- |
| COc1ccc(CN(C)C[C@H]2OCCCC[C@H](C)Oc3ccc(NC(=O)C4CCCCC4)cc3C(=O)N([C@H](C)CO)C[C@H]2C)cc1 | inactive |
| O=C(C[C@@H]1CC[C@@H]2[C@H](COC[C@@H](O)CN2S(=O)(=O)c2ccccc2Cl)O1)NCc1ccccc1Cl | inactive |
| C[C@@H]1CN([C@@H](C)CO)C(=O)CCCn2cc(nn2)CO[C@H]1CN(C)C(=O)Nc1ccc(N2CCCCC2)cc1 | inactive |
| COc1cc2c(cc1OC)C([C@H](C(=O)N(CCc1ccc(OC)c(OC)c1OC)CCc1ccc(OC)c(OC)c1OC)c1ccccc1)=NCC2 | inactive |
| COc1ccc(CN(C)C[C@H]2Oc3ccc(NC(=O)Cn4cnnn4)cc3CC(=O)N([C@H](C)CO)C[C@@H]2C)cc1 | inactive |
| C[C@H](CO)N1C[C@H](C)[C@@H](CN(C)S(=O)(=O)c2ccccc2)OCCCC[C@H](C)Oc2ccc(NC(=O)c3ccccc3)cc2C1=O | inactive |
| C[C@H](CO)N1C[C@H](C)[C@H](CN(C)Cc2ccc(C(F)(F)F)cc2)Oc2c(NC(=O)Nc3ccc(F)cc3)cccc2C1=O | inactive |
| COCC(=O)N1CC[C@]2(CC(C(=O)NCc3cnc(C)cn3)=NO2)C1 | inactive |
